Laboratory results reported in article PMC12040169 (PLOS Biology, 2025).
The list shows a part of the results.

Test system: T1, C. trachomatis L2/434/Bu expressing GFP (CTL2-GFP)
T1 construct: L2/434/Bu GFP intracellular growth in HeLa cells
Design: species or system HeLa; C. trachomatis total inclusion area by high-content imaging, normalised to DMSO
Settings: total inclusion area; 28.5 h, 10 µM; inhibitor
In short: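 High-content imaging followed the bulk GFP/resorufin measurement: fixed, Hoechst-stained cells were scored for GFP inclusions and host nuclei per well. Total inclusion area and count served as growth proxies, nuclei number as the viability proxy. MIC calculation matched the bulk assay.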

| SMILES | % of control remaining |
| --- | --- |
| CN(C)C(CNc1nccnc1-c1ccccc1F)c1cccnc1 (stereo not shown) [CBK037290] | 74.0077 |
| CCNC(=O)Nc1ccc(-c2ccc3c(c2)OCCCO3)c2ccccc12 [CBK083726] | 94.5582 |
| COc1ccc(CCN(Cc2cccnc2)CC(O)COc2cccc3c2CCCC3)cc1 (stereo not shown) [CBK024545T] | 83.222 |
| Cn1c(=O)c2c(nc(CN3CCN(C(=O)c4ccco4)CC3)n2CCc2ccccc2)n(C)c1=O [CBK269278] | 108.133 |
| COc1cc(C(=O)N2CCC3(CC2)CC(=O)c2cc(-c4ccc(N(C)C)cc4)ccc2O3)cc(OC)c1C [CBK170663] | 134.956 |
| CCn1nc(C)c(C(C)NC(=O)c2ccnn2C(F)F)c1C (stereo not shown) [CBK281535] | 93.1472 |
| CC(Oc1ccc2c(c1)OCO2)C(=O)NNC(=O)Nc1cccc(C(F)(F)F)c1 (stereo not shown) [CBK266922] | 120.493 |
| CC1CNCCN1C(=O)c1ccnc(N2CCN(C)CC2)c1 (stereo not shown) [CBK304122] | 98.7675 |
| O=C(COc1ccc(S(=O)(=O)N2CCCC2)cc1Cl)NCC1CCCO1 (stereo not shown) [CBK268243] | 100.265 |
| Clc1ccc(/C=N/Nc2nnn[nH]2)c(Cl)c1 [CBK262034] | 108.642 |
| CCCN1CCC(CNC(=O)c2cc(C3CCCCC3)no2)CC1 [CBK283297] | 98.0075 |
| CC1(C)C(=O)OC(C(=O)c2ccc(Br)cc2)C(C)(C)C1=O (stereo not shown) [CBK264600] | 107.292 |
| O=C(Nc1cccnc1)c1ccnc(Cl)c1 [CBK089829] | 68.2729 |
| Cc1cc(N(C)C)cc(C2CCCN(C(=O)C3CCC3)C2)n1 (stereo not shown) [CBK282004] | 108.159 |
| CN1CCC(Cc2nc(-c3cccc(OC(F)F)c3)n(CCO)n2)CC1 [CBK307294] | 76.9103 |
| CSCCN(C)c1nc2c(c(=O)[nH]1)Cc1ccccc1OC2 [CBK307523] | 85.6843 |
| CN(C)CC(=O)N1Cc2cccc3c2c(cn3S(=O)(=O)c2ccccc2)C1 [CBK155548T] | 86.0781 |
| CN(C)c1cccc(-c2nc(-c3ccc(C#N)cc3)cnc2N)c1 [CBK064049] | 89.123 |
| CCOC(=O)N[C@@H](CC1CCCCC1)C(=O)NCCc1ccc(S(N)(=O)=O)cc1 [CBK015131] | 103.765 |
| c1ccc(Cn2c(CN3CCCC3)nc3ccccc32)cc1 [CBK269612] | 96.8121 |
| CCN(CC)C(=O)Cn1ncc2c3oc(C)cc3n(C(C)C)c2c1=O [CBK282848] | 94.6436 |
| O=C(C[C@@H]1CCNC[C@@H]1Cc1cc(-c2ccccc2)on1)N1CCN(c2ccccn2)CC1 [CBK289150] | 84.9093 |
| O=S(=O)(Nc1nc2ccccc2nc1Nc1ccccc1)c1ccccc1 [CBK260953] | 96.8447 |
| Cc1cccc2cnc(C3CCN(C(=O)c4cnn(C)c4C)CC3)cc12 [CBK285196] | 107.102 |
| O=C(CSc1nc(-c2cccc([N+](=O)[O-])c2)cs1)NCC1CCCO1 (stereo not shown) [CBK268020] | 107.592 |
| Cc1ccccc1C(=O)NC(NCC1CCCO1)C(Cl)(Cl)Cl (stereo not shown) [CBK262273] | 101.459 |
| CC1(C)SC2c3ccccc3C(=O)N2[C@@H]1C(=O)N1CCC(C(=O)O)CC1 (stereo partly shown) [CBK286760] | 123.353 |

| SMILES | % of control remaining |
| --- | --- |
| Cc1ccc([N+](=O)[O-])cc1NS(=O)(=O)Cc1ccc(Cl)cc1 [CBK111359] | 101.862 |
| CCCNc1nc(Nc2ccc(C)cc2)nc(N2CCOCC2)n1 [CBK266664] | 98.2508 |
| Cc1c(-c2cccc(C(=O)N(CCO)C3CCS(=O)(=O)C3)c2)cnn1C (stereo not shown) [CBK307621] | 37.6019 |
| O=C(Oc1ccc2c(=O)c(Oc3ccc(-c4ccccc4)cc3)coc2c1)c1cccnc1 [CBK264479] | 88.8563 |
| O=C1CCCN1CCC1CCN(c2nccc(CCC(F)(F)F)n2)CC1 [CBK307534] | 58.8312 |
| COc1cccc(/C=C\c2onc(C)c2[N+](=O)[O-])c1OCC(=O)O [CBK269063] | 85.9526 |
| O=C1N=C(NC2CCCCCC2)SC1C(=O)N1CCCCCC1 (stereo not shown) [CBK085513] | 93.7839 |
| COc1ccc(C2C(C(=O)c3ccc(C)cc3)=C(O)C(=O)N2CCN(C)C)cc1OC (stereo not shown) [CBK264463] | 116.945 |
| Cc1oc2ccc(O)cc2c1C(=O)NC(C)(C)CN1CCCC(C)C1 (stereo not shown) [CBK282601] | 114.466 |
| CCc1c(-c2cccc(C(=O)N3CCS(=O)(=O)CC3)c2)cnn1C [CBK307487] | 76.1174 |
| CCCn1c(Nc2nc3ccccc3n2C)nc2ccccc21 [CBK268310] | 85.7147 |
| COC(=O)C1C(=O)c2cc3c(cc2C1c1cc(OC)c(OC)c(OC)c1)OCO3 (stereo not shown) [CBK200099] | 5.412 |
| Cc1ncsc1CCOc1cc(C(F)(F)F)ccn1 [CBK115785] | 83.426 |
| NC(=O)CC1Nc2cccc3cccc(c23)NC1=O (stereo not shown) [CBK267560] | 93.1837 |
| CC(C)CNS(=O)(=O)c1ccc(CCC(=O)O)cc1 [CBK287107] | 93.7611 |
| c1nnc(SCc2ccc(CSc3nnc[nH]3)cc2)[nH]1 [CBK263282] | 101.291 |
| COc1ccc(CNC(=O)NC(=O)C2CCN(CCc3c[nH]c4ccccc34)CC2)c(OC)c1 [CBK034864] | 96.0488 |
| COc1cncc(-c2cc(Nc3cccc(OC)c3OC)ncn2)c1 [CBK090728] | 70.5458 |
| O=C(NCc1ccccn1)C1CC(=O)N(c2ccccc2)C1 (stereo not shown) [CBK270175] | 84.1992 |
| CN(C)CCCn1c(NCc2ccc3c(c2)OCO3)nc2ccccc21 [CBK278273C] | 98.3969 |
| Cc1ncccc1Oc1ccc(NC(=O)N2CCc3ccccc3CC2)cn1 [CBK018383] | 83.9251 |
| COc1ccc(NC(=O)c2cc(-c3cccc(Cl)c3)nc3ccccc23)c([N+](=O)[O-])c1 [CBK267777] | 108.793 |
| CC1(C)Cc2nc(N3CCOCC3)ncc2C(NC(=O)c2cccs2)C1 (stereo not shown) [CBK307369] | 65.9873 |
| O=C(CSc1nnc(C2CC2)o1)Nc1ccc(CN2CCOCC2)cc1 [CBK305015] | 59.9143 |
| COc1cc(OC)c(CCNC2CCCc3c2cnn3C)c(OC)c1 (stereo not shown) [CBK304482] | 38.3576 |
| S=C(NCc1ccco1)NCc1cn(-c2ccccc2)nc1-c1ccccc1 [CBK266895] | 80.216 |
| c1ccc2c(c1)OCC(COc1ccnc(N3CCCN(CCc4ccc5ccccc5c4)CC3)n1)O2 (stereo not shown) [CBK083983] | 82.3055 |

| SMILES | % of control remaining |
| --- | --- |
| CCOC(=O)C(C)n1nc(CC)n2c(cc3sc(C)cc32)c1=O (stereo not shown) [CBK284123] | 88.143 |
| COc1ccc(CN2CCC(Oc3nccnc3OCc3cc(C)on3)CC2)cc1 [CBK082953T] | 100.475 |
| O=C(COc1ccc2ccccc2c1)Nc1ccc(Cl)cc1Cl [CBK263598] | 89.8425 |
| NC(=O)c1cccc(COc2ccccc2C(=O)Nc2ccc(-c3ccsc3)cc2C(=O)O)c1 [CBK001718] | 122.633 |
| O=C(O)c1ccc(NS(=O)(=O)c2cc(F)c(Br)cc2F)cc1 [CBK034045] | 103.214 |
| O=C(NCc1ccc(C(F)(F)F)nc1)OCCc1ccncc1 [CBK200132] | 90.4652 |
| COc1ccc(C(=O)Nc2nc3ccc(S(C)(=O)=O)cc3s2)cc1 [CBK287338] | 100.037 |
| CC(=O)N(C)c1nc(-c2ccccc2)ccc1C(=O)NCc1ccco1 [CBK106334] | 105.411 |
| Fc1ccc(CNc2c(-c3cccs3)nc3cnccn23)cc1 [CBK283487] | 74.7952 |
| Nc1ncc(-c2cccnc2)nc1-c1ccc(C(=O)N2CCOCC2)cc1 [CBK064059] | 128.467 |
| CCOC(=O)C1CCCN(Cc2cccc(Cl)c2Cl)C1 (stereo not shown) [CBK307056] | 65.4171 |
| O=C(NC(c1ccccc1)c1cccnc1)C1CCN(C(=O)NC2CCCCC2)CC1 (stereo not shown) [CBK060378] | 99.7872 |
| CNC(=O)Nc1cc(C(O)(C(F)(F)F)C(F)(F)F)ccc1C [CBK006970] | 57.2656 |
| C(=N\c1nc2ccccc2n1CCN1CCOCC1)/c1ccc2c(c1)OCO2 [CBK262270] | 90.7297 |
| Cc1ccc(S(=O)(=O)CC(=O)N2CCC3(CCN(C(=O)Cc4c[nH]c5ccccc45)C3)C2)cc1 (stereo not shown) [CBK131443] | 87.3156 |
| C=C(C)CN1CCN(C(C(=O)O)c2c[nH]c3ccc(OCc4ccccc4)cc23)CC1 (stereo not shown) [CBK286668] | 105.467 |
| O=c1cc(Cn2ccnc2)c2cc3c(cc2o1)CCC3 [CBK287813] | 93.9437 |
| Cc1nnc(SCC(=O)Nn2c(-c3ccccc3)nc3ccccc3c2=O)[nH]1 [CBK268841] | 97.3978 |
| O=C(COc1ccc2c(c1)OCO2)Nc1ccccn1 [CBK288148] | 91.4171 |
| Cc1ccc(S(=O)(=O)NCC(=O)Nc2ccc(C)cc2C(=O)c2ccccc2)cc1 [CBK265199] | 115.645 |
| COC(=O)c1ccccc1NC(=O)c1cc2nc(-c3cccs3)cc(C(F)(F)F)n2n1 [CBK262524] | 118.114 |
| COCCn1c(SCc2ccc([N+](=O)[O-])cc2)nnc1-c1ccccc1 [CBK265937] | 73.7075 |
| O=C(NCc1cccc(C(F)(F)F)c1)N1CCCC(CO)C1 (stereo not shown) [CBK156033] | 96.2425 |
| O=C(NCCCn1ccnc1)c1ncoc1-c1cccs1 [CBK282404] | 84.0587 |
| COc1ccccc1-c1nccnc1OCCC(C)C [CBK106818] | 79.913 |
